In the test the target is T1, VEGF165 (UniProt P15692-4 27-191).
T1 construct: also called VEGFA
T1 sequence (looked up): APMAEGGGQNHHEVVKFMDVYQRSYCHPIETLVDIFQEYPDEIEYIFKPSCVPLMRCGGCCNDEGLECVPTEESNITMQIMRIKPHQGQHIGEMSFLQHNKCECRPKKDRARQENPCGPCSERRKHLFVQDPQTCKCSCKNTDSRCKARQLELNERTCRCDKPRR
As to the kind of experiment: ELISA, plate coated with VEGF, anti-human Fc-HRP detection.

B1: VEGFR1-NRP1-Fc fusion protein (VEGF Deep Blocker: VEEP) (Fc fusion)
chain: VSDTGRPFVEMYSEIPEIIHMTEGRELVIPCRVTSPNITVTLKKFPLDTLIPDGKRIIWDSRKGFIISNATYKEIGLLTCEATVNGHLYKTNYLTHRQTNTSAIAKEGFSANYSVLQSSVSEDFKCMEALGMESGEIHSDQITASSQYSTNWSAERSRLNYPENGWTPGEDSYREWIQVDLGLLRFVTAVGTQGAISKETKKKYYVKTYKIDVSSNGEDWITIKEGNKPVLFQGNTNPTDVVVAVFPKPLITRFVRIKPATWETGISMRFEVYGCKIT[… human IgG1 Fc …]
B1 showed a Kd of 0.05 pM.
